# Measured values published in PMC12136788.
# The list shows a part of the results.
# T1: UNK ZnF1-6 (called full-length) (human, UniProt Q9C0B0 30-357)
# T1 sequence: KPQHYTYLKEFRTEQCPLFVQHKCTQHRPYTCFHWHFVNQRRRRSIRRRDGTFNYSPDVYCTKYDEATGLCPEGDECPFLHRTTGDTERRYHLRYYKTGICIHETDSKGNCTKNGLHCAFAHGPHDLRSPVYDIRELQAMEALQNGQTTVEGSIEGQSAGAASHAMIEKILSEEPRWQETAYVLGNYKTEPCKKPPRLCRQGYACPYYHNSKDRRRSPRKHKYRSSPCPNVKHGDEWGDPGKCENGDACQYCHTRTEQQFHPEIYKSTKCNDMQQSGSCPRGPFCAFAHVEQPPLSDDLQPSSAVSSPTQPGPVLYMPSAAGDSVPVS
# B1: chr7:101138466:101138856:+|3pUTR|ENSG00000106366|msi1|FALSE|unique (ssRNA)
# RNA: GGGAGUUCUACAGUCCGACGAUCGAGUGGGGGGACAGAGACUCAGAUGAGGACAGAGUGGUUUCCAAUGUGUUCAAUAGAUUUAGGAGCAGAAAUGCAAGGGGCUGCAUGACCUACCAGGACAGAACUUUCCCCAAUUACAGGCAACAGAGGAUUGAGCAUCA
# B2: chr9:26926431:26926536:-|CDS|ENSG00000137055|unk|total|mutant (ssRNA)
# RNA: GGGAGUUCUACAGUCCGACGAUCAGAGGUUUGGCAAUUUUGAGUGAAACAGAAUUUCUUUCCUGUGCAAAUGAUGCCCGUAUCCGAAGGUGGCAAAUCACUGGCGAGUGUCUUGAAGUAUAUUAUGGACAUACAAAUUAUAUUCAACAGAGGAUUGAGCAUCA
# B3: chr1:23559171:23559278:-|CDS|ENSG00000117318|unk|FALSE|unique (ssRNA)
# RNA: GGGAGUUCUACAGUCCGACGAUCAACCACUGCUACUCCCGCCUGCGGGAACUGGUACCCGGAGUCCCGAGAGGCACUCAGCUUAGCCAGGUGGAAAUCCUACAGCGCGUCAUCGACUACAUUCUCGACCUGCAGGUAGUCCUGCAACAGAGGAUUGAGCAUCA
# B4: ENSG00000066855:stop:overlap|stop_codon|ENSG00000066855|stop_codon|NA|stop_codon (ssRNA)
# RNA: GGGAGUUCUACAGUCCGACGAUCGAGUGUUGUCCCUUCCAGCUGGCUUUAUUCAGCCCCACGUGUCCAAGCAUUGUCUGGGAUAGCCUUGUAUUGGAAAACCUGGCCCAUUCUGUAAAUAAAGGCUCCACUAGAAAAGACUCGCAACAGAGGAUUGAGCAUCA
# B5: ENSG00000147955:stop:overlap|stop_codon|ENSG00000147955|stop_codon|NA|stop_codon (ssRNA)
# RNA: GGGAGUUCUACAGUCCGACGAUCCUUCCACCAGUGGAGAGAGGGCACCACCAAAAGUGAGGUCUUCUACCCAGGGGAGACGGUAGUACACGGGCCUGGUGAGGCAACAGCUGUGGAGUGGGGGCCAAACACAUGGAUGGUGGACAACAGAGGAUUGAGCAUCA
# B6: chr15:74179522:74179623:-|3pUTR|ENSG00000137868|msi1|FALSE|unique (ssRNA)
# RNA: GGGAGUUCUACAGUCCGACGAUCUCAUGACUCAGACCAGGUCCCACACUGAGCUGCCCACACUCGAGAGCCAGAUAUUUUUGUAGUUUUUAUGCCUUUGGCUAUUAUGAAAGAGGUUAGUGUGUUCCCUGCAAUAAACUUGUUCAACAGAGGAUUGAGCAUCA
# B7: chr11:85659139:85659240:-|3pUTR|ENSG00000137504|msi1|FALSE|unique (ssRNA)
# RNA: GGGAGUUCUACAGUCCGACGAUCGUCUGAUUUAGUAAAAUUUUAAAGCUAAAUAAUCUGAUGACUCUUGAAAGUUUAAUUGGUAGUAUGACAUUUAUGUUUUUUUCCCCCAGACUCACAGCCAAUACAAAGUUUUGAGACUCCCAACAGAGGAUUGAGCAUCA
# B8: chr12:39550845:39550946:-|3pUTR|ENSG00000173208|unk|total|mutant (ssRNA)
# RNA: GGGAGUUCUACAGUCCGACGAUCGGUUCCAAGUACCGUUUCAUAUUUGGCAACCGAUUCAUCUUAUUCUAAUAUGUUUGGAACCGCUUUUUGAUUCAAUGAGUCCCGGAAAAUCUGUUACACAUUGAAACCCAAGUCCAGAGACAACAGAGGAUUGAGCAUCA
# B9: chr1:162785649:162785750:+|3pUTR|ENSG00000162733|unk|total|mutant (ssRNA)
# RNA: GGGAGUUCUACAGUCCGACGAUCUGAAUGUUGUUUUUUUGAAUGAACAUAAGACCGAAACAAAAACUUCUCAUCCAGUUAACCCGAGUGAAUGCCGGGAGAAUUGUUUUGCUUGUAACAUGGAGAGUUUAUUUUCAAGUGAGGCAACAGAGGAUUGAGCAUCA
# B10: chr1:117368288:117368465:+|CDS|ENSG00000198162|unk|total|mutant (ssRNA)
# RNA: GGGAGUUCUACAGUCCGACGAUCUUUUGGGGCAUUCUUUUUCCUUCCAGACUCUUCAAAACACAAACGCUUUGAUUUGGGUUCCGAAGAUGUGUUAAUUCCACAUGCCGAUGCCGGUAAAGGGGCUAAAAACCCCGGAGUCUUCAACAGAGGAUUGAGCAUCA
# B11: chr1:32680599:32680700:+|3pUTR|ENSG00000162521|msi1|total|mutant (ssRNA)
# RNA: GGGAGUUCUACAGUCCGACGAUCAAGUGCUUAAAAUGGAAUAAAUUGCUUUUCUACAUAACCCCAUGCUGAUGGGUUUUAUUCCGUAUAAAACAUCCAUCAAACACCAGUCUCUGGCUUCCCGAAGAGUCCUUCAGAUGACAGCAACAGAGGAUUGAGCAUCA
# B12: chr4:48851844:48851957:+|CDS|ENSG00000109180|unk|total|mutant (ssRNA)
# RNA: GGGAGUUCUACAGUCCGACGAUCAUAUGACUCAAGUGUGAGUGGUCAAUCAUCUUUUGUGACAUCCCCAGCAGCAGACAACACCGAAAUGCUUCCUCAUUAUGAGCCAAUUCCAUUCAGUUCUUCUAUGAAUGAAUCUGCUCCCAACAGAGGAUUGAGCAUCA
# B13: chr19:57858129:57858983:-|three_prime_utr|ENSG00000204514|control|control|control (ssRNA)
# RNA: GGGAGUUCUACAGUCCGACGAUCCCUGUGACACCCUGAGCUUACGUUUCUUUACAAACGAUGCUUCUCUGACACUCUUUCUGUAGAAUUUCUCUCCAAUAUGCUGCUUCUGGUGCUGAUGAAGGUAUGCAGUGUCAUCCAAGUCAACAGAGGAUUGAGCAUCA
# B14: ENSG00000107863:be:win_1551|CDS|ENSG00000107863|bound_else_gene|NA|bound_elsewhere_windowed (ssRNA)
# RNA: GGGAGUUCUACAGUCCGACGAUCUUCCAAUGGAGAGAAAAAACAGACUUACAAGUGGAGUGGGUUUACUGAACAGGAUGAUAGACGAGGUAUUUGUGAAAGACCUAGGCAGCAAGAAAUUCAUAAAUCUUUUCGAGGUUCCAACAACAGAGGAUUGAGCAUCA
# B15: chr8:73046310:73046411:+|3pUTR|ENSG00000147601|msi1|FALSE|unique (ssRNA)
# RNA: GGGAGUUCUACAGUCCGACGAUCUUGUAUUCUUUAAGAACCUUAUUUUGAUAAAAUGUAAAUUUGUUGAACCCUGCCACAUUUAGUAUCCCCACCCCCAAAUCCUGUUCCAAUGAAAAAAUUAAAACCUGAUACGAAAAAAAACAACAGAGGAUUGAGCAUCA
# B16: chr10:62094764:62094865:+|3pUTR|ENSG00000150347|msi1|total|mutant (ssRNA)
# RNA: GGGAGUUCUACAGUCCGACGAUCGAUGAACUCCCCAACCCACUGUGCCCCUCCCGCAACACUACCAGCCGACUUCCGAACCACCGUUAACUAAGUCUUUUACCUCUGAGAUACUUAAUUCUGGGAAAAUUGGUGACAAUUUUCCAACAGAGGAUUGAGCAUCA
# B17: chr1:180199467:180199568:+|3pUTR|ENSG00000116260|msi1|total|mutant (ssRNA)
# RNA: GGGAGUUCUACAGUCCGACGAUCCACAGGAACAAUUUCCUCAAGGAGACAGUGGCAUGGAGCUUUGAAAGACGAGCCGGUGUCCGCAAGGAAAUAAGGAGGAACGGGGGUUACGGGCAGAGGAGAAAGCACAUGCCAAGUCAGCAACAGAGGAUUGAGCAUCA
# B18: ENSG00000070961:be:win_251|CDS|ENSG00000070961|bound_else_gene|NA|bound_elsewhere_windowed (ssRNA)
# RNA: GGGAGUUCUACAGUCCGACGAUCUGUUUGGAAAGAAUUUUAUACCUCCUAAAAAGCCAAAAACCUUUCUUCAAUUAGUAUGGGAAGCAUUACAAGAUGUCACUUUAAUUAUAUUAGAAAUUGCAGCCAUAGUAUCAUUGGGCCCAACAGAGGAUUGAGCAUCA
# B19: chr3:170392585:170392686:+|3pUTR|ENSG00000136603|msi1|FALSE|bound_elsewhere (ssRNA)
# RNA: GGGAGUUCUACAGUCCGACGAUCUACAUUUUCCAAAUGAAUGAAAAUGUAUGUUUCUUUGUACUUUUUUAAAAAAAUCAGCUUAGUAACAAUACUAUAUGGUUUCAACUAGUAGGUAAUCUGCUUAUAUUUCUAAUGCAAACUCAACAGAGGAUUGAGCAUCA
# B20: chr7:20412070:20412171:+|3pUTR|ENSG00000105855|msi1|total|mutant (ssRNA)
# RNA: GGGAGUUCUACAGUCCGACGAUCCUUUUUUUUUAUAAUAAACUUCCAAGAUUUGCUGUCUUCCAGCACUUGAGUUAAAGUACCCGAUACUGCAUUUUGAUGAAGACUAACCCCAUCUCAUAUUCUACCCUAAAGAGAACUGAACAACAGAGGAUUGAGCAUCA
# B21: ENSG00000124766:be:win_201|CDS|ENSG00000124766|bound_else_gene|NA|bound_elsewhere_windowed (ssRNA)
# RNA: GGGAGUUCUACAGUCCGACGAUCGGUGUGGUCGCAGAUCGAGCGGCGCAAGAUCAUGGAGCAGUCGCCCGACAUGCACAACGCCGAGAUCUCCAAGCGGCUGGGCAAACGCUGGAAGCUGCUCAAAGACAGCGACAAGAUCCCCAACAGAGGAUUGAGCAUCA
# B22: chr17:18209558:18209659:+|3pUTR|ENSG00000091542|msi1|total|mutant (ssRNA)
# RNA: GGGAGUUCUACAGUCCGACGAUCGGCCGCUUCUAUCCACUCAGAUCCUGGAAGGCAGCAAGGUUUUGUGGAUCCCGAUUCAUCCGGAAUGUCUUCUUGUCAGCCAGGCCAGGACCCGGGCUUGCCAAGAGCAGAGGCCCUCCCCAACAGAGGAUUGAGCAUCA
# Biological target: T1, UNK ZnF1-6 (called full-length)
# Assay: nsRBNS (natural sequence RNA bind-n-seq); RBNS binding buffer (assumed for nsRBNS): 25 mM Tris pH 7.5, 150 mM KCl, 3 mM MgCl2, 0.01% Triton X-100, 500 ug/ml BSA, 20 U/ml SUPERase-In, 4 C; UNK is unkempt and MSI1 is Musashi-1; names of the RNAs are library labels; protein concentration not given here; high values mean tight binding
row,Binder,binding signal [enrichment R]
1,B1,1.62
2,B2,0.428
3,B3,0.81
4,B4,0.862
5,B5,0.758
6,B6,2.72
7,B7,1.52
8,B8,0.201
9,B9,0.302
10,B10,0.464
11,B11,0.412
12,B12,0.399
13,B13,0.469
14,B14,0.757
15,B15,2.26
16,B16,0.98
17,B17,0.769
18,B18,5.79
19,B19,0.916
20,B20,0.911
21,B21,0.523
22,B22,0.851
